Test results published in patent US20250136696A1 (HARBOUR BIOMED SHANGHAI, published 2025).

T1: B7-H3/CD276 protein, human, recombinant (ECD, Fc tag) (Sino Biological, 11188-H02H) (human, UniProt Q5ZPR3 29-466)
T1 construct: extracellular domain; Bought
T1 sequence (looked up): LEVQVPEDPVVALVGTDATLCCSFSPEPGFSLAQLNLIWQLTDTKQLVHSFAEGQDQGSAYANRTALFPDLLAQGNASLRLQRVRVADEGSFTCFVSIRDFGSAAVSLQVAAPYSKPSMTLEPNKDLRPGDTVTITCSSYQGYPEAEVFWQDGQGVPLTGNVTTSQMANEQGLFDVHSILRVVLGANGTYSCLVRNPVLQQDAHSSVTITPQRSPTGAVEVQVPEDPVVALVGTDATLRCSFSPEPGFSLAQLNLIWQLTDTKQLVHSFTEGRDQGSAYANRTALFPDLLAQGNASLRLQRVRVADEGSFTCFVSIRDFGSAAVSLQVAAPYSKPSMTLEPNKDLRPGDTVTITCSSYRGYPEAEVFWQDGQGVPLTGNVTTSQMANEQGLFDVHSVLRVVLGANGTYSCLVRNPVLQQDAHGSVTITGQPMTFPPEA

T2: biotinylated human B7-H7 protein (Acro Biosystems, B77-H82F5) (human, UniProt Q9UM44 23-344, biotinylated)
T2 construct: Bought soluble protein; also called biotin-B7H7 protein
T2 sequence (looked up): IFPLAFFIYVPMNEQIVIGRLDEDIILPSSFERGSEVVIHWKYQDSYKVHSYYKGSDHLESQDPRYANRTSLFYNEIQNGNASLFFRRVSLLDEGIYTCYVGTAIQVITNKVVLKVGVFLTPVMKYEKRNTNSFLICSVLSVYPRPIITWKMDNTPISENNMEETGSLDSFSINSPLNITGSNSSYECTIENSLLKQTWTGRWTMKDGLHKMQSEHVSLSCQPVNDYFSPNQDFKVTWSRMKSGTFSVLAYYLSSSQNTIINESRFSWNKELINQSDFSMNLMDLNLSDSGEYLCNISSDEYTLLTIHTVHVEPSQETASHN

B1: PR004261 (antibody, human IgG1, kappa)
heavy: QVQLVESGGGVVQPGRSLRLSCAASGFTFSDYGIHWVRQAPGKGLEWVAVIWYDGSDKYYADSVRGRFTISRDNSKNTLSLQMNSLRVEDTAVYYCARDRSSGAMGYFVYWGQGTLVTVSSASTKGPSVFPLAPSSKSTSGGTAALGCLVKDYFPEPVTVSWNSGALTSGVHTFPAVLQSSGLYSLSSVVTVPSSSLGTQTYICNVNHKPSNTKVDKKV[not shown - human IgG1 Fc with changes]
light: [not shown - about 100 residues][not shown - about 100 residues]
notes: Variant of PR003249; Human IgG1 with LALA mutation in Fc
B2: PR004262 (antibody, human IgG1, kappa)
heavy: QVQLVESGGGVVQPGRSLRLSCAASGFTFSNYGMHWVRQVPGKGLEWVAVIWYDGSEKDYADSVKGRFTISRDNSKNTLYLQMNSLRVEDTAVYYCAKDLISGIYYVDHWGQGTLVTVSSASTKGPSVFPLAPSSKSTSGGTAALGCLVKDYFPEPVTVSWNSGALTSGVHTFPAVLQSSGLYSLSSVVTVPSSSLGTQTYICNVNHKPSNTKVDKKV[not shown - human IgG1 Fc with changes]
light: DIQMTQSPSSLSASVGDRVTITCRASQGISNYLAWYQQKPGKVPKLLIYAASTLQSGVPSRFSGSGSGTDFTLTISSLQPEDVATYYCQKYNSAPFTFGPGTKVDIKRTVAAPSVFIFPPSDEQLKSGTASVVCLLNNFYPREAKVQWKVDNALQSGNSQESVTEQDSKDSTYSLSSTLTLSKADYEKHKVYACEVTHQGLSSPVTKSFNRGEC
notes: Variant of PR003259; Human IgG1 with LALA mutation in Fc
B3: PR003259 (antibody, human IgG1, kappa)
heavy: QVQLVESGGGVVQPGRSLRLSCAASGFTFSNYGMHWVRQVPGKGLEWVAVIWYDGSEKDYADSVKGRFTISRDNSKNTLYLQMNSLRVEDTAVYYCAKDLISGIYYVDHWGQGTLVTVSS[not shown - human IgG1 constant region]
light: B2 light
notes: Human IgG1; also called 68F3A2

Experiments:
[1] = target: T1, B7-H3/CD276 protein, human, recombinant …; assay: ELISA on coated B7 family protein
Experimental: B7 family proteins (see Table 7 for details) were respectively diluted to […] with PBS, added into a 96-well plate (Corning, #9018) at 100 μl/well, and incubated at 4° C. overnight. After the liquid was discarded, the plate was washed 3 times with a PBST buffer (pH 7.4, containing 0.05% tween-20), 250 μl of blocking solution containing 2% BSA was added, and the plate was incubated for 1 hour at 37° C. The blocking solution was discarded, the plate was washed 3 times with PBST buffer (pH 7.4, containing 0.05% Tween-20), the antigen-binding protein to be tested was diluted to 2 concentrations of 10 nM and 1 nM, 100 μl of the diluted antigen-binding protein was added to each well, and the plate was incubated for 1 hour at 37° C., with the isotype antibody as the control. After the plate was washed 3 times with PBST buffer (pH 7.4, containing 0.05% Tween-20), goat anti-human HRP secondary antibody (Invitrogen, #A18805) diluted 5000 times was added, and the plate was incubated at 37° C. for 1 hour in the dark. After the plate was washed 3 times with PBST buffer (pH 7.4, containing 0.05% tween-20), TMB (Biopanda, #TMB-S-003) was added at 100 μl/well, and the plate was placed at room temperature for about 30 minutes in the dark; and a stop solution (BBI life sciences, #E661006-0200) was added to each well at 50 μl/well to stop the reaction, and the absorbance at 450 nm (OD450) was determined in a microplate reader (PerkinElemer, #Enspire).

[2] = target: T2, biotinylated human B7-H7 protein (Acro …); assay: BLI epitope competition on SA-captured biotinylated B7-H7; competitor (first antibody) PR003249
Experimental: Epitope competition experiments were performed on the anti-B7-H7 antibodies using the ForteBio Octet Red96e platform with the same experimental buffer as described above. […] After being equilibrated in a buffer for 120 s, the sensors were immersed in various antibodies diluted to 100 nM for 240 s, and the final signal of the antibody binding to B7-H7 was recorded as the 100% signal for that antibody. Second step, epitope competition experiment: B7-H7 was captured using SA sensors at a capture height of 0.25 nm. The sensors were immersed in a first antibody (concentration: 100 nM) for 240 s, then the SA sensors were immersed in a mixture of the first antibody and a second antibody (final concentration of both antibodies: 100 nM) for 240 s, and the difference in signals before and after immersing the sensors in the mixture of the two antibodies was recorded as the signal for that antibody as the second antibody. The inhibition rate was calculated by the following equation, […]

[3] = target: T3, cynomolgus monkey B7-H7 on the cell surface (cynomolgus monkey); assay: flow cytometry, HEK-293/cyno B7-H7 cells
T3 construct: whole, on cells; also called cyno B7-H7
Experimental: This example was intended to study the in vitro activity of H2L2 monoclonal antibodies against human B7-H7 in binding to human/cynomolgus monkey B7-H7. Since homologous molecules of B7-H7 were not present in mice, the detection was not performed. […] The cells were adjusted to a cell density of 1×10⁶ cells/mL, respectively. The cells were seeded in a 96-well V-bottom plate (Corning, #3894) at 100 μL/well, and the antibody to be tested at 2× final concentration with 3-fold concentration gradient dilution was then added at 100 μL/well. The cells were incubated at 4° C. for 2 hours in the dark. After the incubation, the cells were rinsed twice by adding pre-chilled PBS containing 2% BSA at 100 μl/well, and centrifuged at 500 g at 4° C. for 5 minutes, and the supernatant was discarded. […] The cells were washed twice by adding pre-chilled PBS containing 2% BSA at 100 μL/well, and centrifuged at 500 g at 4° C. for 5 minutes, and the supernatant was discarded. Finally, the cells were resuspended in pre-chilled PBS containing 2% BSA at 200 μL/well, and the fluorescence signal values were read using an ACEA Novocyte3000 flow cytometer.

Binder	binding result [1]	Competitive inhibition rate (%) [2] [%]	EC50 [3] [nM]	Maximum MFI [3] [MFI]
B1	no binding (tested: 10 nM)			
B2	no binding (tested: 10 nM)			
B3		110	0.421	419000
